Here are results for three molecules from publication PMC9355564, “A network of cytosolic (co)chaperones promotes the biogenesis of mitochondrial signal-anchored outer membrane proteins” (eLife, 2022).

Protein sequences, listed by entry. Tags and fused reporters are not part of them. Residues count along the entry.
UniProt P02769, residues 25-607: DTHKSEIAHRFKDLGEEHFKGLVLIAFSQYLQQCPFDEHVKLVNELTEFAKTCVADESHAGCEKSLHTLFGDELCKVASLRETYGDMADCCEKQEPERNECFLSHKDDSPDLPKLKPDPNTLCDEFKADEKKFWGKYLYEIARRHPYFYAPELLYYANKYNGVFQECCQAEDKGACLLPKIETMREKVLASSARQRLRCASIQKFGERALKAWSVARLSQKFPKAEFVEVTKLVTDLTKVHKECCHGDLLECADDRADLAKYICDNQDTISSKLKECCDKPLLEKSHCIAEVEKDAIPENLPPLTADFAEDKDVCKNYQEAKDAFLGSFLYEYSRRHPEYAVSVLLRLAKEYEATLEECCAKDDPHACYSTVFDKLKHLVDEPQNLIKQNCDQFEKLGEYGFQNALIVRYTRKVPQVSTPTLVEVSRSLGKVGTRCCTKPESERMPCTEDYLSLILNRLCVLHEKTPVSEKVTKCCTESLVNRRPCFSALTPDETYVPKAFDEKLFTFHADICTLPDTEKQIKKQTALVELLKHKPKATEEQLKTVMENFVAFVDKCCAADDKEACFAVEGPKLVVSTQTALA

Assay [1] concerns the target T1, TAMRA-labeled Mcr1 peptide, residues 1-39 (S. cerevisiae) (UniProt P36060).
T1 sequence (peptide, Tetramethylrhodamine (TAMRA), position not stated): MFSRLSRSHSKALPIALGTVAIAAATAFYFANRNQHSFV
In words: fluorescence polarisation; fluorescence anisotropy, 2 µM TAMRA-labeled peptide, 30 °C; single additions of 10 µM Ssa1, 30 µM Sis1, 10 µM GST-Tom70, GST, BSA or 1 mM ATP alone or in the indicated order; both purified.

For assay [2], the target named is T2, TAMRA-labeled Tom70 peptide, residues 1-32 (S. cerevisiae) (UniProt P07213).
T2 sequence (peptide, Tetramethylrhodamine (TAMRA), position not stated): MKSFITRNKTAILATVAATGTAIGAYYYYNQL
The description is as above.

For assay [3], the target named is T3, GST-Tom70(46-617) (S. cerevisiae) (UniProt P07213).
T3 sequence: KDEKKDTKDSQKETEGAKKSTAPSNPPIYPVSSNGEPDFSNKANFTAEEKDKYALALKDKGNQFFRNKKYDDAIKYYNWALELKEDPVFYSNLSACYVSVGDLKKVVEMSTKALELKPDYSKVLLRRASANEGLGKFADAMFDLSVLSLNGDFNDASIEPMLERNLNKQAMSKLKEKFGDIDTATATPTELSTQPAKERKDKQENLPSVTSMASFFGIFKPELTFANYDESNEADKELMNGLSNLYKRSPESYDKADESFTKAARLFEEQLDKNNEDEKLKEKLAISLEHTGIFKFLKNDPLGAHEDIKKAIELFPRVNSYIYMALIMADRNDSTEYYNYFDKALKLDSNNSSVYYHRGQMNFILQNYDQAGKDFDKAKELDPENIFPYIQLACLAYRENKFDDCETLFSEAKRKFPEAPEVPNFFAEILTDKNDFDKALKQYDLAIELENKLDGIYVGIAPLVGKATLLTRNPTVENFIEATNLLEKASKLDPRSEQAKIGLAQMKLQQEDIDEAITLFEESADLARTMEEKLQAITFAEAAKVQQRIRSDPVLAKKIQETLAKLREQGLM
In words: pull-down; purified GST, GST-Tom20 or GST-Tom70 on glutathione sepharose beads blocked with 5% BSA, mixed with cleared in vitro translation reactions (yeast extract) of HA-tagged proteins; ATP added every 30 min; 20 mM Hepes, 100 mM NaCl, 1 mM MgCl2, pH 7.25; anti-HA blot; only the target purified.

Assay [4] addresses GST-Tom20(35-183) (S. cerevisiae) (UniProt P35180). The description is as above.
Assay [5] deals with T4, Tom70-3HA (full length) (S. cerevisiae), P07213.
T4 chain: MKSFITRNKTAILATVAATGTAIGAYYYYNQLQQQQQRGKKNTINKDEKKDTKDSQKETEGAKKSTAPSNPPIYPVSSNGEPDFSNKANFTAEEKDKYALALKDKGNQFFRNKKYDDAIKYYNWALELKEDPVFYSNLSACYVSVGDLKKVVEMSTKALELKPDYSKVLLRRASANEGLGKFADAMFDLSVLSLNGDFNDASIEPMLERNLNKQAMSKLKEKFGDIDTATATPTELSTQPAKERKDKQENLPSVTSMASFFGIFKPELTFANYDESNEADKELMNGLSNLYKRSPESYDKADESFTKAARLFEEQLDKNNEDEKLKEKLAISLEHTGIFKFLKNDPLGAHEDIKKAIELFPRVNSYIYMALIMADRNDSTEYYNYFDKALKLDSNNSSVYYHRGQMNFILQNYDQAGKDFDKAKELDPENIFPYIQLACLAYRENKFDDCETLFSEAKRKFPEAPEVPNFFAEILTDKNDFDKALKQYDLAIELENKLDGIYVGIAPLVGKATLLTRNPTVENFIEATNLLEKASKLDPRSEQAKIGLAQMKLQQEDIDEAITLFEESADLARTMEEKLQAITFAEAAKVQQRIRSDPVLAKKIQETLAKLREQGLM
In words: pull-down; C-terminally 3HA-tagged proteins translated in vitro in yeast extract (from WT cells, or from cells depleted of Ydj1 and Sis1), pulled down with anti-HA beads; co-purified endogenous proteins in the eluate detected by western blot. The settings on record: remark: other sources report otherwise.

Assay [6] addresses T5, Tom20-3HA (full length) (S. cerevisiae), P35180.
T5 chain: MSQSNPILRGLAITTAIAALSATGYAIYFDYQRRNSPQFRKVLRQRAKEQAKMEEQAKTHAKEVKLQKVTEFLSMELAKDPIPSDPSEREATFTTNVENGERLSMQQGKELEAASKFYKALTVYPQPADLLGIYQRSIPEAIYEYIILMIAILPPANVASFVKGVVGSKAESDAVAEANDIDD
Described as above. The conditions noted are these: remark: other sources report otherwise.

These are yes or no findings as the source states them, for the method shown. For part of these data: Binding seen in cells or lysates may run through a third protein. Some results given as binding are weak or reduced against the parent protein; the word gives no strength. For part of these data: Tags and fused reporters may be left off the sequences shown.

As for “bovine serum albumin (from UniProt P02769 25-607)”, the binding result in assay [1] and in assay [2] was “no binding (tested: 30 µM)” each time.

B1: Mcr1-3HA (full length) (natural protein, S. cerevisiae, UniProt P36060 1-302, looked up)
chain: MFSRLSRSHSKALPIALGTVAIAAATAFYFANRNQHSFVFNESNKVFKGDDKWIDLPISKIEEESHDTRRFTFKLPTEDSEMGLVLASALFAKFVTPKGSNVVRPYTPVSDLSQKGHFQLVVKHYEGGKMTSHLFGLKPNDTVSFKGPIMKWKWQPNQFKSITLLGAGTGINPLYQLAHHIVENPNDKTKVNLLYGNKTPQDILLRKELDALKEKYPDKFNVTYFVDDKQDDQDFDGEISFISKDFIQEHVPGPKESTHLFVCGPPPFMNAYSGEKKSPKDQGELIGILNNLGYSKDQVFKF
notes: Mcr1, S. cerevisiae, signal-anchored mitochondrial outer membrane protein (Mcr1mom is its outer membrane isoform); also called Mcr1-FL; yk-Mcr1-3HA; source: in vitro translated in yeast extract; not shown: 3HA, C-terminal, kept
Regarding B1, the binding result in assay [3] and in assay [4] was “binds” throughout.

B2: Ydj1, P25491 1-409 (protein)
chain: MVKETKFYDILGVPVTATDVEIKKAYRKCALKYHPDKNPSEEAAEKFKEASAAYEILSDPEKRDIYDQFGEDGLSGAGGAGGFPGGGFGFGDDIFSQFFGAGGAQRPRGPQRGKDIKHEISASLEELYKGRTAKLALNKQILCKECEGRGGKKGAVKKCTSCNGQGIKFVTRQMGPMIQRFQTECDVCHGTGDIIDPKDRCKSCNGKKVENERKILEVHVEPGMKDGQRIVFKGEADQAPDVIPGDVVFIVSERPHKSFKRDGDDLVYEAEIDLLTAIAGGEFALEHVSGDWLKVGIVPGEVIAPGMRKVIEGKGMPIPKYGGYGNLIIKFTIKFPENHFTSEENLKKLEEILPPRIVPAIPKKATVDECVLADFDPAKYNRTRASRGGANYDSDEEEQGGEGVQCASQ
Regarding B2, the binding result in assay [5] and in assay [6] was “binds” in each case.
